# Results published in paper PMC4336329 (PLoS ONE, 2015).
# About 14,000 (4.5%) of roughly 310,000 compounds showed an effect of 50% or more. Effects have a minus sign here. The list shows a part of the results.
# Biological target: human ether-à-go-go-related gene (hERG) potassium channel (human, UniProt Q12809)
# Experiment: primary screen, population patch clamp on CHO cells stably expressing hERG
# 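Also: peak tail current of the secondary pulse compared with the same well before compound.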
# Sequence of human ether-à-go-go-related gene (hERG) potassium channel (Q12809 whole entry, looked up): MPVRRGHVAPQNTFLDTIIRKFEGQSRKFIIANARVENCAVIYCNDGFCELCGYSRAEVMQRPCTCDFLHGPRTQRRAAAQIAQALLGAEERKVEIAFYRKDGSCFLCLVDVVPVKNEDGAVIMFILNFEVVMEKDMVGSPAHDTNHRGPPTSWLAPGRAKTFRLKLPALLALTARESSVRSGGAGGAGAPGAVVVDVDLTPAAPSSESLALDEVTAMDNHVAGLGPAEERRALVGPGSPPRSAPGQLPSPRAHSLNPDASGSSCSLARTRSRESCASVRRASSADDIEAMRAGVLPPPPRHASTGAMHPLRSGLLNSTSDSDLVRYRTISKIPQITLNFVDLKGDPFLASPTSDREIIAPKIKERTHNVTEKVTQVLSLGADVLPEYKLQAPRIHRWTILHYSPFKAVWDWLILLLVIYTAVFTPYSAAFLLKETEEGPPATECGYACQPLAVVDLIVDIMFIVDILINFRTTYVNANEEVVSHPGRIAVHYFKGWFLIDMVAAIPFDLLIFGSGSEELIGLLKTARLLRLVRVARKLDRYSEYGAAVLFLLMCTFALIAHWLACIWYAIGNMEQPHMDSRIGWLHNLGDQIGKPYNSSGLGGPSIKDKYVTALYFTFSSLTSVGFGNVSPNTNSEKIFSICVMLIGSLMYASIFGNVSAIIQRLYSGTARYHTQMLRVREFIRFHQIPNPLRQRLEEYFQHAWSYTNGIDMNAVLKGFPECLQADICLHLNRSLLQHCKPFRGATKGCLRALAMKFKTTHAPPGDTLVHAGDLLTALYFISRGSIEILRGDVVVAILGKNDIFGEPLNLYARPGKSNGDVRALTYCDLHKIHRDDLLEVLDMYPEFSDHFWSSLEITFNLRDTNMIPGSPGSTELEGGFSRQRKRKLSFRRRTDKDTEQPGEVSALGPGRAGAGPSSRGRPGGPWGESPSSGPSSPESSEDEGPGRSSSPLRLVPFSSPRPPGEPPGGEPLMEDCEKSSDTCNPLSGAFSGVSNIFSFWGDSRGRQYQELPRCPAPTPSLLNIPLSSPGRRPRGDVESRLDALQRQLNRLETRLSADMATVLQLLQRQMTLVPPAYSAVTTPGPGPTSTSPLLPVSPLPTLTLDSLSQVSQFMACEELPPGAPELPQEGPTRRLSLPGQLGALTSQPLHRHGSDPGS
row,SMILES,"hERG current change (%, negative = inhibition) at 10uM"
1,COc1ccc(CC(=O)NNC(=O)c2ccc(Br)o2)cc1,14.5%
2,O=C(Nc1ccc2c(c1)OCCO2)NC12CC3CC(CC(C3)C1)C2,13.2%
3,CN(C)c1ccc(CN2CCCC(O)C2)cc1 (centres unmarked),6.62%
4,Cc1nc(Nc2ccc3c(c2)OCO3)c2oc3ccccc3c2n1,-0.494%
5,Cn1c(CCNC(=O)c2ccco2)nc2cc(NC(=O)c3ccccc3Cl)ccc21,1.79%
6,CCCCOc1ccc(-c2c(C#N)c(N)nc(SCC(N)=O)c2C#N)cc1,-4.81%
7,O=C(Cn1nc(-c2ccccc2)ccc1=O)NCCN1CCN(c2cccc(Cl)c2)CC1,-24.4%
8,Cc1ccc(NC(=S)Nc2ccc(OC(F)F)c(Cl)c2)cc1Cl,16.5%
9,O=C(Cn1nc(C(F)(F)F)c2c1CCC2)N1CCN(c2ccccc2)CC1,-18.7%
10,C/C(Cn1cnc([N+](=O)[O-])n1)=N\NC(=O)c1cccc(F)c1,6.43%
11,CCc1cccc(NC(=O)c2ccc(Cn3nc(C)cc3C)o2)c1,-24.6%
12,CCN=C1S/C(=C\c2cc(OCC)c(O)cc2Br)C(=O)N1CC,24.1%
13,CC(/C=N\N1CCN(Cc2ccc(C)cc2)CC1)=C\c1ccccc1,9.71%
14,CCOc1ccc(NC(=S)N(CCc2c(C)[nH]c3ccccc23)Cc2cccnc2)cc1,-24.7%
15,C#C[C@]1(OC(C)=O)CCC2C3CCC4=CC(=O)CC[C@@H]4C3CC[C@@]21C (some centres unmarked),-10.8%
16,CCN1CCn2c3c(c4cc(Cl)ccc42)CCCC31.Cl (centres unmarked),-39.1%
17,Cc1ccc(C)n1-c1nn(S(=O)(=O)c2cccc(C(F)(F)F)c2)c2cccc(F)c12,-4.23%
18,COc1cc(NC(=O)CN(C)S(=O)(=O)c2ccc(C)cc2)cc(OC)c1,-19.9%
19,CCOC(=O)c1[nH]n(-c2ccc(Cl)cc2)c(=O)c1C,-4.62%
20,CC(=O)C1=C(c2ccccc2)NC(=O)NC1c1cccs1 (centres unmarked),17.1%
21,CCc1ccc(OCC(O)CN2CCN(c3ccccc3)CC2)cc1.Cl (centres unmarked),-60.3%
22,CCc1cccc(C)c1NC(=O)COC(=O)Cn1c(C)csc1=O,17.1%

row,SMILES,"hERG current change (%, negative = inhibition) at 10uM"
1,Cc1ccc(CNn2cn[nH]c2=S)cc1,17.3%
2,Fc1ccc(CNCCC(Cc2ccccc2)c2ccco2)cc1 (centres unmarked),-54.3%
3,Cc1ccc(NS(=O)(=O)c2ccc3[nH]c(=O)sc3c2)cc1,2.03%
4,COc1ccccc1N(CCC#N)C(=O)CSc1nc(-c2ccccc2)cn1N,3.14%
5,CC(=O)Nc1ccc(S(=O)(=O)NC(C(=O)O)C2=CCC=CC2)cc1 (centres unmarked),16.8%
6,CC1=NN2C(=N)/C(=C\c3cc(C)n(-c4cccc(C)c4)c3C)C(=O)N=C2S1,11.6%
7,Cc1c(N2C(=O)/C(=C/c3cccc4ccccc34)SC2=S)c(=O)n(-c2ccccc2)n1C,2.36%
8,Fc1ccc(/C=C/c2nnc(-c3cccs3)o2)cc1,16.7%
9,COc1ccccc1N(C)S(=O)(=O)c1ccc(C(=O)OCC(=O)c2c[nH]c3ccccc23)cc1,19.5%
10,CCC(C)NC(=O)CC(NS(=O)(=O)c1ccc(NC(C)=O)cc1)C(C)C (centres unmarked),21.8%
11,N#Cc1c(N2CCN(C(=O)c3ccccc3Cl)CC2)nc(-c2ccccc2)c2c1CCCC2,17.6%
12,CC(=O)Oc1ccc(C(=O)Nc2ccc(S(=O)(=O)NCC3CCCO3)cc2)cc1 (centres unmarked),19.4%
13,O=C(COC(=O)/C=C/c1cccs1)Nc1ccc(F)cc1,7.9%
14,O=C(COc1cc2oc(=O)c3c(c2cc1Cl)CCC3)Nc1cccnc1,6.03%
15,c1ccc(SCc2nc(-c3cccnc3)no2)cc1,-6.39%
16,CCCn1nnnc1SCC(=O)N(C(C)C)C(C)C,11.8%
17,Cc1c(C)c2ccc(OCC(=O)N3CCN(c4ccc(F)cc4)CC3)c(C)c2oc1=O,2.26%
18,Cc1cc2nc(CCN(C(=S)NCC3CCCO3)C3CCCC3)[nH]c2cc1C (centres unmarked),-33.2%
19,CCCS(=O)(=O)N1CCN(Cc2c[nH]c3ccccc23)CC1.O=C(O)C(=O)O,-18.3%
20,O=c1[nH]cnc2scc(-c3ccsc3)c12,-1.7%
21,COc1ccc(/C=C/C(=O)NCCOc2ccccc2OC)cc1,-13.6%
22,CN(c1ccc(C(=O)N2CCCCC2)cc1)S(=O)(=O)c1cccs1,8.46%
